# From the supplement of paper PMC8728848
# The other results are listed elsewhere or left out.
# Assays:
# Assay in all cases: glycan array binding signal (z-score within array); higher = stronger binding
# Settings in all cases: glycan notation: IUPAC condensed, linker removed
# Gal(a1-3)Gal(b1-3)Glc = molecular target: Gal(a1-3)Gal(b1-3)Glc
# Method in brief: (§1)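 The binding signal is a Z-score computed within each array. Data were drawn from 3228 arrays in the Consortium for Functional Glycomics database, restricted to those with a known protein sequence. Scores were averaged over arrays of the same protein sequence at different concentrations or buffers, and over linkers, and negative values can be taken as non-binding.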
# Gal(a1-3)Gal(b1-3)GlcNAc = molecular target: Gal(a1-3)Gal(b1-3)GlcNAc
# Method in brief: as §1
# Gal(a1-3)Gal(b1-4)GlcNAc = molecular target: Gal(a1-3)Gal(b1-4)GlcNAc
# Method in brief: as §1
# [1] = molecular target: Gal(a1-3)Gal(b1-4)[Fuc(a1-3)]GalNAc
# Method in brief: as §1
# Gal(a1-3)GlcNAc = molecular target: Gal(a1-3)GlcNAc
# Method in brief: as §1
# [2] = molecular target: Gal(a1-3)[Gal(a1-4)]Gal(b1-4)GlcNAc
# Method in brief: as §1
# Gal(a1-4)Gal(b1-4)Gal = molecular target: Gal(a1-4)Gal(b1-4)Gal
# Method in brief: as §1
# Gal(a1-4)Gal(b1-4)GalNAc = molecular target: Gal(a1-4)Gal(b1-4)GalNAc
# Method in brief: as §1
# Gal(a1-4)GlcNAc = molecular target: Gal(a1-4)GlcNAc
# Method in brief: as §1
# Gal(a1-6)Glc = molecular target: Gal(a1-6)Glc
# Method in brief: as §1
# Gal(b1-2)Gal = molecular target: Gal(b1-2)Gal
# Method in brief: as §1
# Gal(b1-3)Gal = molecular target: Gal(b1-3)Gal
# Method in brief: as §1
# Gal(b1-3)GalNAc = molecular target: Gal(b1-3)GalNAc
# Method in brief: as §1
# [3] = molecular target: Gal(b1-3)GalNAc(b1-3)Gal(a1-4)Gal(b1-4)Glc
# Method in brief: as §1
# [4] = molecular target: Gal(b1-3)GalNAc(b1-3)Gal(b1-4)Glc
# Method in brief: as §1
# [5] = molecular target: Gal(b1-3)GalNAc(b1-3)Gal(b1-4)GlcNAc
# Method in brief: as §1
# [6] = molecular target: Gal(b1-3)GalNAc(b1-4)Gal(b1-4)Glc
# Method in brief: as §1
# [7] = molecular target: Gal(b1-3)GalNAc(b1-4)[Neu5Ac(a2-3)]Gal(b1-4)Glc
# Method in brief: as §1
# [8] = molecular target: Gal(b1-3)[Fuc(a1-4)]GlcNAc
# Method in brief: as §1
# [9] = molecular target: Gal(b1-3)[Fuc(a1-4)]GlcNAc(b1-3)Gal(b1-4)GlcNAc
# Method in brief: as §1
# [10] = molecular target: Gal(b1-3)[Fuc(a1-4)]GlcNAc(b1-3)Gal(b1-4)[Fuc(a1-3)]GlcNAc
# Method in brief: as §1
# [11] = molecular target: Gal(b1-3)[GlcNAc(b1-6)]GalNAc
# Method in brief: as §1
# [12] = molecular target: Gal(b1-3)[GlcNAc(b1-6)]GlcNAc
# Method in brief: as §1
# [13] = molecular target: Gal(b1-3)[Neu5Ac(a2-6)]GalNAc
# Method in brief: as §1
# [14] = molecular target: Gal(b1-3)[Neu5Ac(a2-6)]GlcNAc
# Method in brief: as §1
# [15] = molecular target: Gal(b1-3)[Neu5Ac(a2-6)]GlcNAc(a1-4)Gal(b1-4)Glc
# Method in brief: as §1
# [16] = molecular target: Gal(b1-3)[Neu5Ac(b2-6)]GlcNAc
# Method in brief: as §1
# [17] = molecular target: Gal(b1-4)GalNAc(a1-3)[Fuc(a1-2)]Gal(b1-4)GlcNAc
# Method in brief: as §1
# [18] = molecular target: Gal(b1-4)GalNAc(b1-3)[Fuc(a1-2)]Gal(b1-4)GlcNAc
# Method in brief: as §1
# Gal(b1-4)Glc = molecular target: Gal(b1-4)Glc
# Method in brief: as §1
# Gal(b1-4)Glc6S = molecular target: Gal(b1-4)Glc6S
# Method in brief: as §1
# Gal(b1-4)GlcNAc = molecular target: Gal(b1-4)GlcNAc
# Method in brief: as §1
# [19] = molecular target: Gal(b1-4)GlcNAc(b1-2)Man(a1-3)[Gal(b1-4)GlcNAc(b1-2)Man(a1-6)]Man(b1-4)GlcNAc(b1-4)GlcNAc
# Method in brief: as §1
# [20] = molecular target: Gal(b1-4)GlcNAc(b1-3)Gal(b1-4)Glc
# Method in brief: as §1
# [21] = molecular target: Gal(b1-4)GlcNAc(b1-3)Gal(b1-4)GlcNAc
# Method in brief: as §1
# [22] = molecular target: Gal(b1-4)GlcNAc(b1-3)Gal(b1-4)GlcNAc(b1-3)Gal(b1-4)GlcNAc
# Method in brief: as §1
# [23] = molecular target: Gal(b1-4)GlcNAc(b1-3)Gal(b1-4)[Fuc(a1-3)]GlcNAc(b1-3)Gal(b1-4)[Fuc(a1-3)]GlcNAc
# Method in brief: as §1
# [24] = molecular target: Gal(b1-4)GlcNAc(b1-3)GalNAc
# Method in brief: as §1
binder,measurement,setting,value
ASA (Allium sativum) (protein) KAHEKERMGRNTPSAKLMSIAAVAAILTILASTCMARNLLTNGEGLYAGQSLNVEPYHFIMQEDCNLVLYDHSTAVWATNTDIPGKKECRAVLQSDGNFVVYDADGRPLWASHSVRGNGNYVLVLQEDGNVVIYGSDIWSTGTYVKAARGPVVVAMNGTVDGGSLIRPVIVNKNHVPVIRKVGTLSRNILRNDEGLYAGQSLDVEPYHFIMHEDCNLVLYDHSTAVWASNTDIPGKKGCKAVLQSDGNFVVYDAEGRSLWASHSVRGNGNYVLVLQEDGNVVIYGSDIWSTDTYRKSARGPVIRKVGTLAGAA,glycan array binding signal (z-score),Gal(a1-3)Gal(b1-3)Glc,-0.221
same,glycan array binding signal (z-score),Gal(a1-3)Gal(b1-3)GlcNAc,-0.207
same,glycan array binding signal (z-score),Gal(a1-3)Gal(b1-4)GlcNAc,-0.226
same,glycan array binding signal (z-score),[1],-0.238
same,glycan array binding signal (z-score),Gal(a1-3)GlcNAc,-0.184
same,glycan array binding signal (z-score),[2],-0.219
same,glycan array binding signal (z-score),Gal(a1-4)Gal(b1-4)Gal,-0.222
same,glycan array binding signal (z-score),Gal(a1-4)Gal(b1-4)GalNAc,-0.2
same,glycan array binding signal (z-score),Gal(a1-4)GlcNAc,-0.223
same,glycan array binding signal (z-score),Gal(a1-6)Glc,-0.214
same,glycan array binding signal (z-score),Gal(b1-2)Gal,-0.229
same,glycan array binding signal (z-score),Gal(b1-3)Gal,-0.226
same,glycan array binding signal (z-score),Gal(b1-3)GalNAc,-0.222
same,glycan array binding signal (z-score),[3],-0.229
same,glycan array binding signal (z-score),[4],-0.235
same,glycan array binding signal (z-score),[5],-0.231
same,glycan array binding signal (z-score),[6],-0.222
same,glycan array binding signal (z-score),[7],-0.196
same,glycan array binding signal (z-score),[8],-0.215
same,glycan array binding signal (z-score),[9],-0.208
same,glycan array binding signal (z-score),[10],-0.193
same,glycan array binding signal (z-score),[11],-0.211
same,glycan array binding signal (z-score),[12],-0.181
same,glycan array binding signal (z-score),[13],-0.233
same,glycan array binding signal (z-score),[14],-0.19
same,glycan array binding signal (z-score),[15],-0.154
same,glycan array binding signal (z-score),[16],-0.217
same,glycan array binding signal (z-score),[17],-0.234
same,glycan array binding signal (z-score),[18],-0.207
same,glycan array binding signal (z-score),Gal(b1-4)Glc,-0.23
same,glycan array binding signal (z-score),Gal(b1-4)Glc6S,-0.198
same,glycan array binding signal (z-score),Gal(b1-4)GlcNAc,-0.223
same,glycan array binding signal (z-score),[19],-0.037
same,glycan array binding signal (z-score),[20],-0.205
same,glycan array binding signal (z-score),[21],-0.165
same,glycan array binding signal (z-score),[22],-0.217
same,glycan array binding signal (z-score),[23],-0.166
same,glycan array binding signal (z-score),[24],-0.23
